Laboratory results from article PMC4336329 (PLoS ONE, 2015).
Hit rate of the full screen: of about 310,000 compounds, about 2,200 (0.71%) showed an effect of 50% or more. The effect is printed as a negative number. Some of the results follow.

Each compound was assayed against human ether-à-go-go-related gene (hERG) potassium channel (human, UniProt Q12809) (assay: primary screen, population patch clamp on CHO cells stably expressing hERG).
Sequence of human ether-à-go-go-related gene (hERG) potassium channel (Q12809 whole entry, looked up): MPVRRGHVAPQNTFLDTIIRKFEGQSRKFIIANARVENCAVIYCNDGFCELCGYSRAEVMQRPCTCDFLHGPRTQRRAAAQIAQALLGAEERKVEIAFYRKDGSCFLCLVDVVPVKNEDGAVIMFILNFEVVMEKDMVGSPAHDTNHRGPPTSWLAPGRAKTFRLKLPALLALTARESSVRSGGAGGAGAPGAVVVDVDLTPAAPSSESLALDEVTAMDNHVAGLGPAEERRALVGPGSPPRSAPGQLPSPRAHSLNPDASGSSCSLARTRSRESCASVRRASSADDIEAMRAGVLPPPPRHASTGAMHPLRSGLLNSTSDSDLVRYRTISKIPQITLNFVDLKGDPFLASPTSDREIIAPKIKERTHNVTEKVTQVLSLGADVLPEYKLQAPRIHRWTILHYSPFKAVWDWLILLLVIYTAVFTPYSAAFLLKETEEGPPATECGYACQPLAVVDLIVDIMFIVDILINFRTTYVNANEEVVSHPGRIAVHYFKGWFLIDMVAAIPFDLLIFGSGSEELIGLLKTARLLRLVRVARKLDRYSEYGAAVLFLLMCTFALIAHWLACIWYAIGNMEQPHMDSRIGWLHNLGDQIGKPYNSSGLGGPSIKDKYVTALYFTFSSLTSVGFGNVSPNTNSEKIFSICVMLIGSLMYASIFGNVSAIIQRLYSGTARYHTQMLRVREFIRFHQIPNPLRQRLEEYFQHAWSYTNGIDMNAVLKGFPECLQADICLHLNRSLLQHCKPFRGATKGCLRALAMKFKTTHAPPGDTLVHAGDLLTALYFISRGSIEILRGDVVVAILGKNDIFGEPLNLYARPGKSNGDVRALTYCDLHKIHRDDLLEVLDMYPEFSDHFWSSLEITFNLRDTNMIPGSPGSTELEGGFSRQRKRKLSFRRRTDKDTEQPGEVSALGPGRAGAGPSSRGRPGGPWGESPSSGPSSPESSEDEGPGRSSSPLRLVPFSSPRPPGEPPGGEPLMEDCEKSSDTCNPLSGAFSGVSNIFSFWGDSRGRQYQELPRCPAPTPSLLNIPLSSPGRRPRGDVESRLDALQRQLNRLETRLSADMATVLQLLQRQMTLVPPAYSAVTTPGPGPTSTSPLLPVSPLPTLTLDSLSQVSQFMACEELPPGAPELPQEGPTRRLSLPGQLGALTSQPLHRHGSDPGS

Row | SMILES | hERG current change (%, negative = inhibition) at 1uM [%]
1 | Cc1noc(C)c1COC(=O)CNC(=O)c1ccc(Cl)cc1 | -2.81
2 | CCn1c2ccccc2c2nnc(SCC(=O)Nc3c(C)n(C)n(-c4ccccc4)c3=O)nc21 | 10.6
3 | CCCn1cnc2scc(-c3ccc(C)c(C)c3)c2c1=O | 7.31
4 | CC(NC(=O)COC(=O)c1ccc(OCC2CCCO2)cc1)c1ccccc1Cl (stereo not drawn) | 19.5
5 | O=C1CSC(c2ccccn2)N1c1ccc(F)cc1F (stereo not drawn) | 3.3
6 | O=C(CN(Cc1ccccc1Cl)S(=O)(=O)c1ccc(Cl)cc1)N/N=C/c1ccc(C(=O)O)cc1 | 16.1
7 | COc1ccc(S(=O)(=O)N2CCN(C(=O)NC3CCCCC3)CC2)cc1 | 4.33
8 | Cc1ccc(N(CC(=O)NCc2ccccc2)C(=O)c2csnn2)c(C)c1 | 22.4
9 | CC(=O)N(c1ccc(C(F)(F)F)cc1)S(=O)(=O)c1ccc(N2C(=O)CCC2=O)cc1 | 6.55
10 | O=C(NC1CCCC1)c1ncn[nH]1 | 9.28
11 | COc1cc(C(=O)NCCC(=O)NCCCN2CCCCC2C)cc(OC)c1OC (stereo not drawn) | 3.78
12 | O=C(O)/C(=C\c1ccccc1Cl)c1ccc(S(=O)(=O)N2CCCCC2)s1 | 11.2
13 | CCCCOc1ccccc1C1NC(=O)NC(C)=C1C(=O)OCCOCC (stereo not drawn) | 6.66
14 | Cc1cccc(C)c1NC(=O)CNC(=O)CCCN1C(=O)c2cccc3cccc(c23)C1=O | 25.5
15 | CC1CN(Cc2nc3c(c(=O)[nH]c(=O)n3C)n2CC(N)=O)CC(C)O1 (stereo not drawn) | 3.32
16 | COc1ccc(Nc2nc(C)cc(C)c2C#N)cc1OC | 10.3
17 | COc1ccc(/C=N/NC(=O)c2nonc2N)cc1OC | 14.6
18 | CC(C)C(=O)NNC(=O)C1CC1(c1ccccc1)c1ccccc1 (stereo not drawn) | 13.6
19 | Cc1ccc(SCCC(=O)N2CCC(C(N)=O)CC2)cc1 | 4.72
20 | CCOC(=O)C1CCCN(C(=O)c2csc(-c3ccc4c(c3)CCO4)n2)C1 (stereo not drawn) | 5.33
21 | COc1ccccc1CNc1nc(=S)[nH]c2cc(OC)c(OC)cc12 | 14.5
22 | [O-]C1=N/[N+](=C/c2ccc(Cl)c(Cl)c2)CC1 | 16.9

Row | SMILES | hERG current change (%, negative = inhibition) at 1uM [%]
23 | COc1ccc(C(=O)NC(CCSC)C(=O)N2CCCCCC2)cc1 (stereo not drawn) | 2.69
24 | O=C(NN=C1CCCCCCC1)C(=O)NC1CCCCC1 | 4.04
25 | CCOC(=O)c1[nH]c(=O)c2ccccc2c1O | 3.27
26 | O=c1c2ccccc2cnn1Cc1n[nH]c(=S)n1-c1ccccc1Cl | 14.9
27 | COc1ccc(CNC(=O)c2csc(Cc3ccc(Cl)cc3)n2)cc1 | 3.73
28 | Cc1n[nH]c(C)c1CCNC(=O)C1CCC(=O)N(Cc2ccccc2F)C1 (stereo not drawn) | 18.6
29 | CCN(CC)C(=O)c1ccccc1NC(=O)c1ccccc1 | 6.47
30 | COCC1CCN(Cc2nc(-c3ccc(OC)cc3)no2)CC1 | 10.1
31 | COc1ccc(NCC(=O)N/N=C/c2c(C)nn(Cc3ccccc3)c2Cl)cc1 | 6.64
32 | CCSc1nnc(NC(=O)Cc2cc(OC)c(OC)c(OC)c2)s1 | -7.45
33 | CC(C)[C@H](NC(=O)c1ccco1)C(=O)OCC(=O)Nc1ccccc1OC(F)F | 12.3
34 | COc1cc(/C=N/NC(N)=O)ccc1OCC(=O)Nc1ccc(C)c(C)c1 | 3.17
35 | Cc1ccccc1NC(=S)NC(C)C(c1ccccc1)N1CCN(C)CC1 (stereo not drawn) | 2.12
36 | COc1cccc(Cn2c(=S)[nH]c3ccc(N4CCOCC4)cc3c2=O)c1 | -3.31
37 | COc1ccc(-c2cnc(NCc3cc4c(cc3[N+](=O)[O-])OCO4)n2C)cc1 | -10.3
38 | O=C(CNC(=O)c1cccc(F)c1)OCc1cc(=O)n2cc(Br)ccc2n1 | 15
39 | COc1ccc(-c2cn(-c3ccc(C)c(Cl)c3)c(=S)[nH]2)cc1OC | 15
40 | CC(C)CNC(=O)C(=O)NN=C1CCCCCC1 | 10.1
41 | O=C(CSc1nc2ccccc2c(=O)n1-c1ccccc1)N1CCN(CCO)CC1 | 18.5
42 | Cc1ccc(NC(=O)CN(C)C(=O)Cn2cc(C(F)(F)F)ccc2=O)cc1 | 0.887
43 | COC(=O)N1[C@H](Cc2ccccc2)C=C[C@]1(C)C(=O)NCc1ccccn1 | 13.8
44 | Cn1c(=O)n(C)c2cc(S(=O)(=O)NCC(=O)O)ccc21 | 4.84

Row | SMILES | hERG current change (%, negative = inhibition) at 1uM [%]
45 | Cc1ccc(NS(=O)(=O)c2cccc(C(=O)O)c2)c(C)c1 | 14.3
46 | O=C(NCc1ccc(N2CCCC2=O)cc1)c1cnccn1 | 24.9
47 | COc1ccc(-c2nn(-c3ccccc3)cc2C(=O)Nc2nccs2)cc1 | -10.2
48 | COc1cc(Cl)ccc1OCc1cc(C(=O)N2C[C@]3(C)C[C@H]2CC(C)(C)C3)no1 | 1.34
49 | CCC1=Nc2cc(C(=O)NCc3ccco3)ccc2Sc2ccc(C)cc21 | 12.4
50 | COc1ccc(CNc2nc(NCc3ccc(OC)cc3)n(C(=O)c3ccccc3[N+](=O)[O-])n2)cc1 | -0.736
51 | COc1ccc(C(=O)CCC(=O)N2CCN(c3ccc(N4CCOCC4)nn3)CC2)cc1 | 1.27
52 | CCN(CC)S(=O)(=O)c1ccc(Cl)c(NC(=O)COC(=O)/C=C/c2ccc(O)c(OC)c2)c1 | 0.792
53 | COc1cccc(NC(=S)Nc2cccnc2)c1 | 4.79
54 | CCC(Sc1nc2ccccc2o1)C(=O)Nc1nnc(C)s1 (stereo not drawn) | -6.09
55 | CCN(C(=S)NC(=O)c1ccccc1Br)C1CCCCC1 | 12.6
56 | C#CCNC(=O)C1=C[C@H](c2ccc3c(c2)OCO3)[C@@H](CCCO)[C@H](OCC)O1 | 10.9
57 | Cc1nn(Cc2ccc(Cl)cc2)c2sc(C(=O)O)cc12 | 17.5
58 | N#CC1=C(N)Oc2cc(O)ccc2C1c1ccncc1 (stereo not drawn) | 12.3
59 | CCCC(=O)Nc1cc(C)c2c(=O)oc3ccccc3c2n1 | 12.4
60 | Cc1ccc(S(=O)(=O)N2CCCCC2)cc1NC(=O)CNc1ccccc1N1CCCC1=O | 5.66
61 | Cc1ccc(C)c(NC(=O)CSc2nnc(-c3cc(C)[nH]n3)n2N)c1 | 2.68
62 | O=C(c1ccncc1)N1N=C2CCCCCC2C1(O)C(F)(F)F (stereo not drawn) | 6.66
63 | O=C(Cc1ccc(F)cc1)OCN1C(=O)c2ccccc2C1=O | 8.23
64 | O=C1CCCC(O)=C1C=Nc1ccc2c(c1)oc1ccccc12 | 14.6
65 | FC(F)(F)c1cnc(-c2cnc(-c3cccnc3)nc2)c(Cl)c1 | 11.2
66 | Cc1ccc(OCC(=O)OCC(=O)c2cccc([N+](=O)[O-])c2)cc1C | 0.885

Row | SMILES | hERG current change (%, negative = inhibition) at 1uM [%]
67 | COc1ccc(NC(=O)Cn2nnc(C(=O)NCc3ccc(C)cc3)c2N)cc1Cl | 11.4
68 | CCN1CCN(CC(=O)N2c3ccccc3CC2C)CC1.O=C(O)C(=O)O (stereo not drawn) | 14.3
69 | COc1ccc(C(=O)Oc2cccc(Nc3ncnc4ccccc34)c2)cc1OC | 12.1
70 | COc1ccc(CCNC(=O)COC(=O)c2cnc(C)cn2)cc1OC | 16.7
71 | COCCNC(=O)CNC(c1ccccc1)c1ccccc1.O=C(O)C(=O)O | 7.42
72 | CCC1=C(OC(=O)N(CC)CC)N2C(=O)OC(=NCC(=O)OC)[C@]2(Cc2ccccc2)[C@H]2C1=CC[C@H]1C(=O)N(c3ccccc3)C(=O)[C@H]12 | 3.75
73 | Cc1ccccc1N(CC(=O)NCc1ccc2c(c1)OCO2)C(=O)C1CSC(=O)C1 (stereo not drawn) | 10.9
74 | Nc1ccc(C(=O)OC2CCOC2=O)cc1[N+](=O)[O-] (stereo not drawn) | 8.21
75 | CC(C)c1nc2ccccc2n1CC(O)COC1CCCCC1 (stereo not drawn) | 10.1
76 | COc1ccccc1-n1c(SCC(=O)Nc2ccc3c(c2)OCO3)nc2c(c1=O)SCC2 | -0.652
77 | C=CC[N@@+]12CC[C@]34c5ccccc5N5/C=C6\C7N(/C=C(\C53)[C@@H](C[C@@H]41)/C(=C/CO)C2)c1ccccc1[C@@]71CC[N@@+]2(CC=C)C/C(=C\CO)[C@@H]6C[C@@H]12.[Cl-] (stereo partly drawn) | 16.3
78 | CCOC(=O)c1ccc(Nc2ncnc3c2cnn3C)cc1 | -2.39
79 | O=C(NNC(=O)C1CC1)c1cc2cc3ccccc3nc2s1 | 11
80 | Cc1ccc(S(=O)(=O)NNC(=S)NC(C)(C)C)cc1 | 0.483
81 | COc1cc(OC)c(C2Oc3nc(SC)nnc3-c3ccccc3N2C(C)=O)cc1OC (stereo not drawn) | -3.42
82 | CCCc1cc(=O)oc2c(CN3CCCC3)c(O)ccc12 | -9.4
83 | CCc1nnc(NC(=O)c2ccc(C)o2)s1 | -2.32
84 | Cn1c(=O)c2c(nc(Sc3ccccc3N)n2C)n(C)c1=O | 13.2
85 | COc1ccccc1CCNC(=O)C(=O)Nc1cc2c3c(c1)C(C)C(=O)N3CCC2 (stereo not drawn) | 6.58
86 | CCOCCn1c(-c2ccccc2)nc2ccccc21 | 13.9
87 | O=C(COc1ccc(S(=O)(=O)Nc2ccccc2)cc1)N1CCOCC1 | 13.4
